These results are taken from the supplement of paper PMC9334596.

The subject of the assay is mPer2Luc MEF. The assay is described as follows: PER2::LUC luminescence relative to vehicle control (fold of vehicle); higher = higher PER2::LUC reporter signal. The conditions noted are these: 10 µM. The gist of the method:
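The value is PER2::LUC luminescence expressed as fold of vehicle control. Mouse embryonic fibroblasts carrying the mPer2Luc reporter were seeded at ~3000 cells per well in 384-well plates and grown in DMEM with 10% FBS at 37 °C and 5% CO2. Compounds from commercial libraries were added at 10 μM 48 h after seeding, and luminescence was read with the ONE-Glo luciferase assay system 24 h and 30 h after treatment, followed by an alamarBlue viability assay.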

Values joined by “and” are separate entries in the source; they are usually repeats but may differ in a detail not shown here. Equal entries are not always repeated. Over roughly 5,300 compounds, “PER2::LUC luminescence relative to vehicle control” has its median near 0.96; the highest 2% begin near 1.3. The list shows a part of the results.

Take `CO[C@H](C)[C@](O)(C(=O)OCC1=CCN2CC[C@H](O)[C@@H]12)C(C)C`: the “PER2::LUC luminescence” value by setting is: (time after treatment 24 h) 0.997; (time after treatment 30 h) 1.01.
As to `COc1c2c3c4c(c(OC)c(=O)c5c(O)cc(OC)c(c6c(OC)cc(O)c(c1=O)c63)c54)[C@@H](C(C)=O)[C@@](C)(O)C2`, the “PER2::LUC luminescence” value runs as follows: (time after treatment 24 h) 1.14; (time after treatment 30 h) 1.06.
Consider `O=P1(NCCCl)OCCCN1CCCl` (stereo unspecified), for which the “PER2::LUC luminescence” value is, setting by setting: (time after treatment 24 h) 0.866; (time after treatment 30 h) 1.01.
Consider `Oc1ccc(Cl)cc1`, for which the “PER2::LUC luminescence” value runs as follows: (time after treatment 24 h) 1.07 and 1.04; (time after treatment 30 h) 1.02 and 1.01.
For the molecule `CC1=CCC[C@@H]2C1(C)CCC(C)[C@@]2(C)CC/C(C)=C/C[n+]1cn(C)c2c(N)ncnc21` (stereo partly specified), the “PER2::LUC luminescence” value amounted to 0.948 (time after treatment 24 h) and 0.801 (time after treatment 30 h).
`CN1CC[C@@]2(C)c3cc(OC(=O)Nc4ccccc4)ccc3N(C)[C@@H]12`: the “PER2::LUC luminescence” value is, setting by setting: (time after treatment 24 h) 0.901 and 0.98; (time after treatment 30 h) 0.886 and 0.703.
As for `N#CCCN`, the “PER2::LUC luminescence” value reads like this: (time after treatment 24 h) 1.18; (time after treatment 30 h) 1.1.
For the molecule `CC(C)c1c(CN(C)C(C)Cc2ccccc2)n(C)n(-c2ccccc2)c1=O` (stereo unspecified), the “PER2::LUC luminescence” value (time after treatment 24 h) was determined as 1.02 and the “PER2::LUC luminescence” value (time after treatment 30 h) came to 0.911.
In the case of `C=C(C)[C@@H]1[C@H]2OC(=O)[C@@H]1[C@]1(O)C[C@H]3O[C@]34C(=O)O[C@H]2[C@]14C`, the “PER2::LUC luminescence” value runs as follows: (time after treatment 24 h) 0.976; (time after treatment 30 h) 1.02.
For `COc1ccc2c(c1O)-c1cc(O)cc3c1[C@@H](C2)N(C)CC3`, the “PER2::LUC luminescence” value is 0.815 (time after treatment 24 h) and 0.917 (time after treatment 30 h).
As to `N#Cc1ccccc1-c1cc(-c2ccccn2)cn(-c2ccccc2)c1=O`, the “PER2::LUC luminescence” value (time after treatment 24 h) was 0.947 and the “PER2::LUC luminescence” value (time after treatment 30 h) worked out at 1.06.
On the same counts, the results for `C[C@]12CCC(=O)C=C1CCc1ccc(O)cc12` are 0.947 and 0.712.
On to `Cc1cccc(C)c1NC1=NCCCS1`, for which the “PER2::LUC luminescence” value (time after treatment 24 h) was 1.03 and 0.704; the “PER2::LUC luminescence” value (time after treatment 30 h) was 0.939 and 1.06.
On to `O=C1CCC[C@@H]2[C@H]3CCCN4CCC[C@@H](CN12)[C@@H]34`, for which the “PER2::LUC luminescence” value was 1.03 and 1.09 (time after treatment 24 h); 0.999 and 1.13 (time after treatment 30 h).
On to `COc1cc2c(cc1OC)C1CC(=O)C(CC(C)C)CN1CC2` (stereo unspecified), for which the “PER2::LUC luminescence” value is, setting by setting: (time after treatment 24 h) 1.13; (time after treatment 30 h) 0.914.
On to `CCCCC/C=C\C/C=C\C/C=C\C/C=C\CCCC(=O)Nc1ccc(O)cc1`, for which the “PER2::LUC luminescence” value was found to be 1.22 (time after treatment 24 h) and 1.24 (time after treatment 30 h).
`CCNC(=O)[C@H]1O[C@@H](n2cnc3c(N)ncnc32)[C@H](O)[C@@H]1O`: the “PER2::LUC luminescence” value (time after treatment 24 h) was 1.06 and the “PER2::LUC luminescence” value (time after treatment 30 h) worked out at 1.03.
On to `COc1c2c(cc3c1OCO3)CC[N+](C)=C2`, for which the “PER2::LUC luminescence” value is, setting by setting: (time after treatment 24 h) 0.995; (time after treatment 30 h) 0.982.
For the molecule `CC(=O)OCC1=C(C(=O)O)N2C(=O)[C@@H](NC(=O)CCC[C@@H](N)C(=O)O)[C@H]2SC1`, the “PER2::LUC luminescence” value was 0.806 and 0.976 (time after treatment 24 h); 1.08 and 0.911 (time after treatment 30 h).
Turning to `O=C1CN=C(c2ccccc2)c2cc([N+](=O)[O-])ccc2N1`, the “PER2::LUC luminescence” value runs as follows: (time after treatment 24 h) 0.971; (time after treatment 30 h) 0.769.
On the same counts, the results for `Cc1ccc(S(=O)(=O)N[C@@H](CCCCN)C(=O)CCl)cc1` are 1.11 and 1.03.
On the same counts, the results for `CCCN1CCC[C@@H](c2cccc(O)c2)C1` are 0.913 and 0.87.
Take `CN1C(=O)COc2c(C(=O)NC3CN4CCC3CC4)cc(Cl)cc21` (stereo unspecified): the “PER2::LUC luminescence” value (time after treatment 24 h) is 0.845 and 0.723 and 0.393; the “PER2::LUC luminescence” value (time after treatment 30 h) is 0.823 and 0.799 and 0.544.
With `CCOC(OCC)P(=O)(O)CCCN`, the “PER2::LUC luminescence” value reads like this: (time after treatment 24 h) 1.05; (time after treatment 30 h) 1.01.
`NC(=O)C[S+]([O-])C(c1ccccc1)c1ccccc1` (stereo unspecified): the “PER2::LUC luminescence” value reads like this: (time after treatment 24 h) 1.02; (time after treatment 30 h) 0.986.
As to `Cc1cc(SCc2sc(-c3ccc(C(F)(F)F)c(F)c3)nc2C)ccc1OCC(=O)O`, the “PER2::LUC luminescence” value is 1.03 (time after treatment 24 h) and 1.21 (time after treatment 30 h).
Turning to `C=C1[C@@H](C)[C@H]2[C@H](Cc3ccccc3)NC(=O)[C@]23OC(=O)/C=C/[C@H](O)CCC[C@@H](C)C/C=C/[C@H]3[C@@H]1O`, the “PER2::LUC luminescence” value was found to be 0.353 (time after treatment 24 h) and 0.305 (time after treatment 30 h).
Take `CC(C)(C)[C@]1(O)CC2OC(=O)CC23C(=O)OC2OC(=O)[C@H](O)C231` (stereo partly specified): the “PER2::LUC luminescence” value runs as follows: (time after treatment 24 h) 1.09; (time after treatment 30 h) 1.09.
Turning to `CC[C@@H]1/C=C/C=C/C[C@H](C)[C@H](O)[C@](C)(O)C(=O)[C@H](C)[C@@H](O)[C@H](C)C(=O)[C@H](C)[C@@H](O)[C@H](C)/C=C/C(=O)O[C@H]2[C@@H](C)[C@@H](CC1)O[C@@]1(CC[C@@H](C)[C@@H](C[C@H](C)O)O1)[C@@H]2C`, the “PER2::LUC luminescence” value turned out to be 0.37 (time after treatment 24 h) and 0.402 (time after treatment 30 h).
On the same counts, the results for `CC[C@@H](C(=O)O)[C@@H]1O[C@@H]([C@@H](C)[C@H](O)[C@H](C)C(=O)[C@H](CC)[C@H]2O[C@]3(C=C[C@@H](O)[C@]4(CC[C@@](C)([C@H]5CC[C@](O)(CC)[C@H](C)O5)O4)O3)[C@H](C)C[C@@H]2C)[C@@H](C)C[C@@H]1C` are 0.201 and 0.184.
Regarding `CN1CCN(C(=O)OC2c3nccnc3C(=O)N2c2ccc(Cl)cn2)CC1` (stereo unspecified), the “PER2::LUC luminescence” value is, setting by setting: (time after treatment 24 h) 0.806; (time after treatment 30 h) 0.82.
Turning to `Clc1ccc(C(OCCN2CCCCC2)c2ccccc2)cc1` (stereo unspecified), the “PER2::LUC luminescence” value is, setting by setting: (time after treatment 24 h) 0.798; (time after treatment 30 h) 0.799.
For the molecule `C[C@@H](CO)NC(=O)[C@@H]1C=C2c3cccc4[nH]cc(c34)C[C@H]2N(C)C1`, the “PER2::LUC luminescence” value was determined as 0.963 (time after treatment 24 h) and 0.89 (time after treatment 30 h).
`CC1=C[C@]23C(=O)[C@@H](C=C(COC(=O)c4ccccc4)[C@@H](O)[C@]2(O)[C@H]1OC(=O)c1ccccc1)[C@H]1[C@@H](C[C@H]3C)C1(C)C`: the “PER2::LUC luminescence” value is 0.86 (time after treatment 24 h) and 0.807 (time after treatment 30 h).
On the same counts, the results for `Clc1ccccc1C(c1ccccc1)(c1ccccc1)n1cccn1` are 1.12 and 1.04.
`O=C(O[C@H]1C[N+]2(CCCOc3ccccc3)CCC1CC2)C(O)(c1cccs1)c1cccs1`: the “PER2::LUC luminescence” value is 1.04 (time after treatment 24 h) and 1.01 (time after treatment 30 h).
Regarding `CC(=O)O[C@H]1[C@H]2O[C@]23[C@@H]2CC[C@@H]4C[C@@H](O)CC[C@]4(C)[C@H]2CC[C@]3(C)[C@H]1c1ccc(=O)oc1`, the “PER2::LUC luminescence” value is 0.932 (time after treatment 24 h) and 0.916 (time after treatment 30 h).
Take `O=C(N[C@H]1CN2CCC1CC2)c1cc2cccc(Cl)c2s1`: the “PER2::LUC luminescence” value was found to be 0.706 (time after treatment 24 h) and 0.682 (time after treatment 30 h).
